Reference: PMC4336329 (PLoS ONE, 2015)
Hit rate of the full screen: of about 310,000 compounds, about 2,200 (0.71%) showed an effect of 50% or more. Effects have a minus sign here. The list shows a part of the results.

What follows are compounds tested against human ether-à-go-go-related gene (hERG) potassium channel (human, UniProt Q12809) (assay: primary screen, population patch clamp on CHO cells stably expressing hERG).
Sequence of human ether-à-go-go-related gene (hERG) potassium channel (Q12809 whole entry, looked up): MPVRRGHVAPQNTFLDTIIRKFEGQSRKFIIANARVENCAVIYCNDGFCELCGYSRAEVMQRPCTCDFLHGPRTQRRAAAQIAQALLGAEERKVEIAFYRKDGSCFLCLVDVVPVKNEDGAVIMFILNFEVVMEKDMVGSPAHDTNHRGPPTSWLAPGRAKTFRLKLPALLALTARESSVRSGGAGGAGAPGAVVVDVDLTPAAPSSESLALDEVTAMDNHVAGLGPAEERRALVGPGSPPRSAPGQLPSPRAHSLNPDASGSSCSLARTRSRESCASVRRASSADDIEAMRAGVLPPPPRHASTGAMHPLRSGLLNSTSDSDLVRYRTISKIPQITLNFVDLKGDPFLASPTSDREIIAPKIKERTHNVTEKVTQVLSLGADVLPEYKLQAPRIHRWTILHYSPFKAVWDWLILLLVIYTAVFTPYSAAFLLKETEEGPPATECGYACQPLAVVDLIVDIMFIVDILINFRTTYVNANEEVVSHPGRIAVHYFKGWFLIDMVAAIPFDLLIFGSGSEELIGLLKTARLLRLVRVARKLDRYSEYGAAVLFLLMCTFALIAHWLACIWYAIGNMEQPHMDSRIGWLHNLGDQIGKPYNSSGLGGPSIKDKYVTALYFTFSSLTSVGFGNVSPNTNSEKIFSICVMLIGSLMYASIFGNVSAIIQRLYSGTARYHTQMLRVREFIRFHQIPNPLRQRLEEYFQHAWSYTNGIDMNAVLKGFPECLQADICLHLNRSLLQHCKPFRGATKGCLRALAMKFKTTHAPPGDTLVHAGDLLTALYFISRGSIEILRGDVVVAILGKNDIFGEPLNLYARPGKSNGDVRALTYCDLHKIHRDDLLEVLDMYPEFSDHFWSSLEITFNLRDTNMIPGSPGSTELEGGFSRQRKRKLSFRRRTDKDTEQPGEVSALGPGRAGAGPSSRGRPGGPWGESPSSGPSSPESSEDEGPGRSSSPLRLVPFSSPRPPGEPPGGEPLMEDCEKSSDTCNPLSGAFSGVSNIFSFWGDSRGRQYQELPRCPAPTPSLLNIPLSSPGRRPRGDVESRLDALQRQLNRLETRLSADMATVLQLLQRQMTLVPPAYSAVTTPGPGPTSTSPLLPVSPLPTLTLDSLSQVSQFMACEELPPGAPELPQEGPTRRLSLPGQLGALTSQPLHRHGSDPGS

Row | Compound | hERG current change (%, negative = inhibition) at 1uM [%]
1 | CCOC(=O)Cn1cc(/C=C(/C#N)C(=O)NC(C)C)c2ccccc21 | 16.1
2 | COC(=O)Cc1ccc(NC(=S)NCCC(C)C)cc1 | 8.85
3 | C=CCOc1ccc(/C=N/NC(=O)c2c(C)nc3ccc(Cl)cn23)cc1 | 15.5
4 | CCOc1ccc(NC(=O)c2cc(SC)ccc2Cl)cc1 | 14.1
5 | CCC(C)c1ccc(NC(=O)N2CCOCC2)cc1 (stereo not shown) | 9.12
6 | COc1ccc(C2(C(=O)Nc3ccc(C)c(C)c3)CCOCC2)cc1 | 14.8
7 | COc1ccc(-c2noc(=O)n2CC(=O)N2CCC(Cc3ccccc3)CC2)cc1 | 18.7
8 | CC(=O)c1ccc(S(=O)(=O)N2CCC(Oc3ccc(-n4cnnn4)cc3)CC2)cc1 | 17.6
9 | COc1ccc(NC(=O)c2sc(=S)[nH]c2N)cc1 | 16.1
10 | Cc1nnc(N2CCCC(C(=O)NCc3ccc(OC(C)C)cc3)C2)c2nn(-c3ccccc3)c(C)c12 (stereo not shown) | 3.08
11 | OCC1(C2=NOC(O)(C(F)(F)F)C2)CCCCC1 (stereo not shown) | 13.3
12 | O=c1[nH]cnc2c1C(c1ccc(Cl)cc1)c1c(nc[nH]c1=O)O2 | 1.37
13 | Cc1c(NC(=O)C(C)OC(=O)COc2cccc3c2OC(C)(C)C3)c(=O)n(-c2ccccc2)n1C (stereo not shown) | 10.6
14 | COc1ccc(C2(C)NC(=O)N(CC(=O)Nc3ccc4[nH]c(=O)[nH]c4c3)C2=O)cc1 (stereo not shown) | 8.1
15 | O=C(NCCc1ccccc1)c1ccc2nc(N3CCOCC3)sc2c1 | 10.7
16 | O=C(COC(=O)c1cc2c(s1)CCCC2)NCc1ccccc1Cl | 2.75
17 | Clc1ccc(Nc2nc3ccccc3n3nnnc23)cc1 | 6.95
18 | NC(=O)c1ccccc1NC(=O)COc1ccc(Cl)cc1 | 10.8
19 | Br.Nc1nc(-c2ccccc2)c(N=Nc2ccc(Cl)cc2)s1 | 10.1
20 | CSc1ccc(/C=C(/NC(=O)c2ccco2)C(=O)N2CCCCC2)cc1 | 7.85
21 | COc1ccc(-c2cnc3ncnn3c2N)cc1 | 11.7
22 | COc1ccc(CNC(=O)c2ccc(CNc3c(NC4CCCCC4)c(=O)c3=O)cc2)cc1 | 12.5
23 | CCCCCCn1c(CN2CCN(C(=O)c3ccco3)CC2)nc2c1c(=O)n(C)c(=O)n2C | -46.6
24 | Cc1ccccc1OCC(=O)OC(C(=O)c1ccccc1)c1ccccc1 (stereo not shown) | 11
25 | O=C1N2c3ccccc3CCc3cccc(c32)C1(O)C(F)(F)F (stereo not shown) | 5.26
